Read counts are not given, so values of variants with three or more changes are uncertain.
B1: LINE1-mini (parent)
chain: GGCAGAGCUCAACACAGCGUGGCAAAGUGGCUGUGGCUAGACUGCC

Variants of: B1
Test: self-cleavage, relative activity (ratio to wild type); higher = more cleavage; in vitro, sequencing; the parent is a self-cleaving ribozyme

| Variant | self-cleavage |
| --- | --- |
| GGCAUAGCUCAAUACAGCGUGGCAUAGUGGUUGUGGCUAGACUCCC [G5U C13U A25U C31U G44C] | 0.07 |
| GACUGGGCUCAACACAGCGUGGAAAAAUGGCUGUGGCUAGACUGGC [G2A A4U A6G C23A G27A C45G] | 0.04 |
| GGCAGAGCUCUACACAGCGUGGCAAAGUGGCUGCGGCUAUACUGCC [A11U U34C G40U] | 0.03 |
| GGCAGAGCUCAACACACCGUGGCAAAAAGGCUGUGGCUAGACUGCC [G17C G27A U28A] | 0.23 |
| GGCACAGAUCAAGACAGCGUGGCAAAGUGGCUGUGGCUAGACUGCC [G5C C8A C13G] | 0.09 |
| GGCAAAGCUUAACACAUCGCGGCAAAGUGGCUGUGGCUAGUCUGCC [G5A C10U G17U U20C A41U] | 0.04 |
| GUCAGAGCUCACCACAGCGUGGCACAGUGGCGGUGGCUAGACUGCC [G2U A12C A25C U32G] | 0.01 |
| GGCAGAGCUCAACACAGCGUGGCAACGUAGAUGUGGCUAGCCGGCC [A26C G29A C31A A41C U43G] | 0.05 |
| GGUAGAUCUCAACACAGCGUGGCAAAGUGGCUGUCGCUAGACUGCC [C3U G7U G35C] | 0.03 |
| GGCAGAGCUGAACUCUGCGUGGCAAAGUGGCUGUGGCUAGACUGCC [C10G A14U A16U] | 0.01 |
| GGCAGUGUUCAACACAGCGUGGCAAAGUGGCUGUGACUAGGCUUCC [A6U C8U G36A A41G G44U] | 1.64 |
| GGCGGAGCUCAACACACCUUGGCAAAGUGGCAGUGUCUAGACUGCC [A4G G17C G19U U32A G36U] | 0 |
| GGCAGAGUUCGACACAGCGUGGCAAAGUGGCUGUGGCUAGACUGUC [C8U A11G C45U] | 0 |
| GGCAGCGCUCAACACAGCGUGGCAAAGUGACUGUUACUUGACUGGC [A6C G30A G35U G36A A39U C45G] | 0.02 |
| GGCAGAGCUCAACAAAGGGUGGCAAAGUGGCUGUUGCUAGACUGCC [C15A C18G G35U] | 0.07 |
| GGUAGAGCUCAACACAGAGUGGCAAAGUGGCUGUGUCUAGACUUCC [C3U C18A G36U G44U] | 0.01 |
| GGCAGAGUUCAACACAGCGUGGCAAAGUGGCUGUGGUCAGACUGCC [C8U C37U U38C] | 0.14 |
| AGCAGAGCUCAAUACAGCGUGGCAAAGUGGCUUUGGCUAGACUGCC [G1A C13U G33U] | 0.12 |
| GGCAGAGCUCAACACAGCGUGGUAAAGUAGCUGUCGCUAGCCUGCA [C23U G29A G35C A41C C46A] | 0.06 |

| Variant | self-cleavage |
| --- | --- |
| GGCAGAGCUCAACACAGCGAUGCAAAGUGGUUGUGGCUAGACUGCC [U20A G21U C31U] | 0.2 |
| GUCAGAGCUCAACAAAGCGUGGCAAAGUGGUUGUGACUAGACUGCC [G2U C15A C31U G36A] | 0.07 |
| GGCAGAGCGCAACACAGCGUGGCAAAGUGACCGUGGCUAGAUUGCC [U9G G30A U32C C42U] | 0.04 |
| GCCAGUGCUAAACACAGCGUGUCAAAGUGGCUGUGGCUGGACUCCC [G2C A6U C10A G22U A39G G44C] | 0.01 |
| AGCGGAGCUGAACACAGCGUGGCAGAGUGGCUCUGGCUCGGCUGCC [G1A A4G C10G A25G G33C A39C A41G] | 0.01 |
| GGCAAAGGUCAAGACAGCGUGGCAAAGUGGCUGUGGCUAGACUGCG [G5A C8G C13G C46G] | 0.1 |
| GGAACAGCUCAACACAGCGUGGCAAAGUGGUUGUGGCUAGAGUGUC [C3A G5C C31U C42G C45U] | 0.17 |
| GGCAGAGCUUAACACAGUGGGGCAAAGUGGCUGUGGCUAAACUGCC [C10U C18U U20G G40A] | 0.03 |
| GGCAGAGCUCUAUACAGUGUGGUUAAGUGGCUGUGGCUAGACUGCC [A11U C13U C18U C23U A24U] | 0.02 |
| GGCAGAGCUCAACACAGUGUGGCAAAGUGUCUUUGGCUAUACUGCC [C18U G30U G33U G40U] | 0.01 |
| GGCAGAGCUAAACACAGAGUGGCAAAGUUGCUGUGGCUAGACUGCC [C10A C18A G29U] | 0.03 |
| GGCAGAGCUCAACACAGCGUAGCAAAGCUGCUGUGGCUAGACUGCC [G21A U28C G29U] | 1.18 |
| GGAAGAGCACACCACAGCGUCGCAAAGUGGCUGUGCCUAGACUGCC [C3A U9A A12C G21C G36C] | 0.02 |
| GGCAGAGCUCAACACAGCGUGGCAACGUGGCUGUGACUAGACGGUC [A26C G36A U43G C45U] | 0 |
| GGCAGAUCUCAACACAGCGUGGCCAAGUGGCUGUGGCUAGAUUGCC [G7U A24C C42U] | 0.23 |
| GAUAGAGCUCAACACUGUGUGGCAAACUGGCUGUCGCUAGACUGCC [G2A C3U A16U C18U G27C G35C] | 0.62 |
| GGGAGAGCUCAGCACAACGUGGCAAAGUGGCUGUGGCUAGACUGUC [C3G A12G G17A C45U] | 0.03 |
| GGCAGAGCACAACACAGCGUGGCAAACUGGCUGAGGCUAAACUGCC [U9A G27C U34A G40A] | 0.14 |
| GGCAGAACUCAACACAGCUUGGCAAAGCCCCUGUGGCUAAACUGUC [G7A G19U U28C G29C G30C G40A C45U] | 0.12 |

| Variant | self-cleavage |
| --- | --- |
| GGCAGAGCUCAACACAUCGUGGCAAAGUGGCUGUGGCUAACAUGGC [G17U G40A A41C C42A C45G] | 0.01 |
| GGCAGAGCUCAACACAGCGUGACAAAGUGCCUGUGUCUAGACUGCC [G22A G30C G36U] | 0.05 |
| GUCAAAGCUCAACACAGCGUCGCAAAGUGGCUGUGGCUAGAGUGUC [G2U G5A G21C C42G C45U] | 0.03 |
| GGCAGAGAUCAACUCAGCGUGGCAAAGUGGCUGUGGCUAGAAUGCC [C8A A14U C42A] | 0.32 |
| GGCAGAGGUCAAUACAGCGGGGCAAAGUGGCUGUGGCUAGACUGGC [C8G C13U U20G C45G] | 0.04 |
| GGAAGAGCUUAACACAGCGUGGCAAAGUGGCGAUGGCUAGACUGCC [C3A C10U U32G G33A] | 0.07 |
| GGCAGGGCUCAACACAGCGUGACAAAGUGGCUGAGGCUAGUCUGCC [A6G G22A U34A A41U] | 0.05 |
| GGGAGAGCUCAACCCAACGUGGCAAAGUGCCUGUGGCUAGACUGCC [C3G A14C G17A G30C] | 0.08 |
| GGCAGAGCUCAACACGGCGUUGCAAAGUGGCUGUGGCUAGGCUGCC [A16G G21U A41G] | 0.03 |
| GGCAGAGCUCAACACAGCGUUGCAAAGUGGCUGUGGCUAGGUUGCC [G21U A41G C42U] | 0.13 |
| GGGAAAGCUCAACACAGCGUGGCAAAGUGCGUGUGGCUAGACUGCA [C3G G5A G30C C31G C46A] | 0.06 |
| GGCAGAGCUCAACACAGCGUGGUAAAGUCUCUGUGGCUAGACUGCC [C23U G29C G30U] | 0.91 |
| GGGAGAGCUCAACUCAGCGUGGUAAAGUGGCUGUGGAUAGACUGCC [C3G A14U C23U C37A] | 0.08 |
| GGCAGAGCUCAACACACCGUGGCAAUGUGGCUGUGGCUAGACAGCC [G17C A26U U43A] | 0.14 |
| GGCAGAGCUCAACAGAGUGUGGAAAAGUGGCUGUGGCUAGACUGCC [C15G C18U C23A] | 0.13 |
| GGCAGAGCUCAACAUAGGGUGGCAAAGUGGCUAGGGCUCGACUGCC [C15U C18G G33A U34G A39C] | 0 |
| GGCAGAGCUCAAUCCAGCGUGGGAACGUGGCUGUGGCUAGACUACC [C13U A14C C23G A26C G44A] | 0.05 |
| AGCCCAGCUCAACACAGCGUGGCAAAGUGGCUGUGGCUAGACUGCC [G1A A4C G5C] | 0.04 |

From the RNAGym collection of RNA variant scans (doi:10.7554/elife.90254)
